# Experimental data reported in PubChem BioAssay AID540317 (National Center for Advancing Translational Sciences (NCATS), 2011).
# Several values for one entry are separate records, joined by “and”; a condition that tells them apart may be missing. Identical values can stand only once. Out of some 390,000 compounds screened, about 2,200 (0.56%) were called active. The shares of active, inactive and inconclusive entries below differ from those in the screen. Calls come from the whole dose curve; as a rule, active = well fitted inhibition curve with a large enough effect; inconclusive = small, poorly fitted or top-dose-only effect; inactive = no such curve, though single readings can be large or run the other way. Potencies of inconclusive entries are doubtful fits and often do not repeat.
# Biological target: Chromobox protein homolog 1 (Homo sapiens) (UniProt P83916)
# Chain of UniProt P83916 (P83916 whole entry, looked up): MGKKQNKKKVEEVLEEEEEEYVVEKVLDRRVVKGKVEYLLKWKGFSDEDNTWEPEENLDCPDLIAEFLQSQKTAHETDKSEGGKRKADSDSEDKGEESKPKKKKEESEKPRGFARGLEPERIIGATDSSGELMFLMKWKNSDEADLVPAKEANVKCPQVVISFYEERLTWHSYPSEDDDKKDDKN
# Assay: HTS for Inhibitors of HP1-beta Chromodomain Interactions with Methylated Histone Tails; note: nearly all actives have a fitted effect of over 70% in size
# Conditions: AlphaScreen HP1-beta / biotin-H3K9me3 peptide binding; series mostly up to 114 µM; activity change, negative = inhibition: at the top concentration
# In short: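 HP1-beta protein (50 nM final) preincubated 30 min at room temperature with biotinylated H3(1-18)K9me3 peptide (50 nM) in PBS pH 7.4, 0.01% Tween-20, then compound added for 30 min. AlphaScreen streptavidin donor/nickel chelate acceptor beads (10 ug/mL final), 30 min dark, luminescence read.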
# Potency is the fitted concentration of half-maximal effect; tags give direction and shape of the fitted curve.
Structure (SMILES),"activity change, negative = inhibition",Potency
Cc1ccc(CNC(=O)CNS(=O)(=O)c2ccc(Br)s2)cc1,inactive: 25.6%,–
CCCOc1ccc(N)cc1N,–,"inconclusive: 56.2 µM [inhibitor, single point]"
Cc1ccccc1N1C(=O)CC(N(O)c2ccccc2)C1=O (stereo not drawn),inactive: 33.8%,–
Oc1nc(Nc2ccc(Cl)cc2Cl)sc1/C=C1\C=Nc2ccccc21,–,"inconclusive: 15.8 µM [inhibitor, full curve, poor fit]"
Cc1cc(OCCn2ccnc2)cc(C)c1Cl,inactive: 24.2%,–
Brc1cccc(-c2nnc(-c3ccccc3)o2)c1,inactive: 79.6%,–
COCCOC(=O)c1[nH]c2c(c1C)C(=O)CC(c1ccco1)C2 (stereo not drawn),–,active: 50.1 µM
CC(C)CN1CCC(=O)N(C(CSc2ccc(Br)cc2)c2ccccc2)CC1 (stereo not drawn),inactive: 76.1%,–
O=C(Nc1cccc2cccnc12)c1cccc([N+](=O)[O-])c1,inactive: 25%,–
CCOC(=O)c1sc(N(Cc2ccccc2)C(=O)COC(=O)c2ccccc2O)nc1C,inactive: 29%,–
N#Cc1c(N)sc2c1CCCCCC2,–,"inconclusive: 20 µM [inhibitor, partial curve, poor fit]"
CC(C)Oc1cccc(C(=O)C2CCCN(C(=O)CCn3cnnn3)C2)c1 (stereo not drawn),inactive: 48.6%,–
COc1ccccc1NC(=O)Nc1nn(C)c2cccc(N(C)C)c12,–,"inconclusive: 79.4 µM [inhibitor, single point]"
Cc1cc(C)n(-c2nc(C)c(C)c(=O)n2CC(=O)Nc2ccc(OC(F)(F)F)cc2)n1,inactive: 60.3%,–
COc1cc(C(C2=C(O)CC(C)(C)CC2=O)C2C(=O)CC(C)(C)CC2=O)cc(OC)c1OC (stereo not drawn),inactive: -1.34%,–
CC(=O)Nc1ccc(NC(=O)C(C)Sc2nnc(C3CC3)n2-c2ccccc2)cc1 (stereo not drawn),inactive: 36.2%,–
Cc1ccc(/C=N/N2CCN(C3c4ccccc4-c4ccccc43)CC2)o1,–,"inconclusive: 3.16 µM [inhibitor, full curve, poor fit]"
Cc1ccc(OCc2nnc(SCC(=O)NCc3ccco3)n2C)cc1,–,"inconclusive: 79.4 µM [inhibitor, partial curve, poor fit]"
Cc1ccc(OCc2nnc(SCC(=O)Nc3ccc4c(c3)OCCO4)n2Cc2ccco2)cc1,–,"inconclusive: 25.1 µM [inhibitor, single point]"
COc1ccc(Cc2nn3c(Cn4nnc5ccccc54)nnc3s2)cc1,–,"inconclusive: 28.2 µM [inhibitor, single point]"
CC1=NN(c2ccccc2)C(=O)/C1=C\c1ccc(Br)s1,–,"inconclusive: 8.91 µM [inhibitor, full curve, poor fit]"
c1ccc2c(c1)CCNC2c1ccncc1 (stereo not drawn),inactive: 15.6%,–
CCNC(=S)N(CCc1c(C)[nH]c2ccc(OC)cc12)Cc1cccnc1,inactive: 25.5%,–
Cc1ccc(NC2=Nc3ccccc3N3C2=Nc2c(c(C)nn2-c2ccccc2)C3c2ccc(O)c(O)c2)cc1 (stereo not drawn),inactive: 44.3%,–

Structure (SMILES),"activity change, negative = inhibition",Potency
COc1cc2cc3c(N)c(C(=O)Nc4sc(C)c(C)c4C#N)sc3nc2cc1OC,–,"inconclusive: 20 µM [inhibitor, full curve]"
O=C(N/N=C/c1cccc(F)c1)c1cc(-c2ccco2)nc2ccccc12,–,active: 28.2 µM
CC1CCCC(C)N1C(=O)CSCc1ccc(Cl)cc1 (stereo not drawn),inactive: 21.8%,–
COc1ccc(/C=N/NC(=O)c2cccc(C(=O)N/N=C/c3ccc(OC)c(OC)c3)n2)cc1OC,–,"inconclusive: 35.5 µM [inhibitor, single point]"
O=C1CN(C(=O)COc2ccc(F)cc2Br)c2ccccc2N1,inactive: 39.4%,–
CCc1nc(N2CCN(C(=O)c3ccccc3)CC2)c(C#N)c2c1COC(C)(C)C2,inactive: 11.4%,–
CC(C)(C)c1ccc(C(=O)NCC(c2cccnc2)N2CCc3ccccc3C2)cc1 (stereo not drawn),–,"inconclusive: 12.6 µM [inhibitor, full curve]"
O=C(O)/C=C/C(=O)Nc1ccc(O)cc1,–,"inconclusive: 79.4 µM [inhibitor, single point]"
COc1cccc(CN2CCC(C(=O)N3CCN(c4ccccc4F)CC3)CC2)c1,–,"inconclusive: 17.8 µM [inhibitor, partial curve, poor fit]"
CC(C)(C)N1NC2(CCCCC2)NC1=S,inactive: 3%,–
Cc1ccc(OCC(=O)N2CCN(c3ccc([N+](=O)[O-])c(N4CCOCC4)c3)CC2)cc1,–,"inconclusive: 22.4 µM [inhibitor, full curve]"
O=C(O)C1CSC(c2ccco2)N1 (stereo not drawn),–,active: 39.8 µM
Cn1c2ccccc2c2nn(-c3ccccc3)c(=O)cc21,inactive: 23%,–
CC1CCN(CCOCCOc2ccccc2-c2ccccc2)CC1,–,"inconclusive: 56.2 µM [inhibitor, single point]"
Cc1ccc(C)c(NC(=O)C(Sc2nnc(-c3cccs3)o2)c2ccccc2)c1 (stereo not drawn),–,"inconclusive: 7.08 µM [inhibitor, full curve, poor fit]"
O=C(NC(=S)NC(c1ccccc1)c1ccncc1)c1ccccc1 (stereo not drawn),–,"inconclusive: 11.2 µM [inhibitor, partial curve, poor fit]"
Cc1ccc(-c2noc(-c3ccccc3C(=O)NCc3ccco3)n2)cc1,inactive: 18.3%,–
Cc1ccc(CN2CCN(/N=C\C=C\c3ccccc3)CC2)cc1,–,"inconclusive: 39.8 µM [inhibitor, partial curve]"
Cc1ccccc1NC(=O)CSc1nnc(-c2ccco2)n1N,–,"inconclusive: 44.7 µM [inhibitor, partial curve, poor fit]"
Cc1ccc(-c2nc3ncccn3c2Nc2ccc3c(c2)OCCO3)cc1,–,"inconclusive: 35.5 µM [inhibitor, partial curve] and inconclusive: 50.1 µM [inhibitor, partial curve]"
CCc1ccc(CNc2ccc3c(c2)ncn3C(C)(C)C)cc1,–,"inconclusive: 28.2 µM [inhibitor, full curve] and inconclusive: 35.5 µM [inhibitor, partial curve]"
O=C(NCc1cccnc1)c1cnc2n(c1=O)CCS2,inactive: 16.2%,–
CCCCCC(=C/c1ccccc1)/C=N/Nc1ccc(S(=O)(=O)N2CCOCC2)cc1[N+](=O)[O-],–,"inconclusive: 2.82 µM [inhibitor, full curve]"
O=C(O)COc1ccccc1/C=N/Nc1ccc(S(=O)(=O)Nc2ccc(Cl)cc2)cc1[N+](=O)[O-],–,"inconclusive: 17.8 µM [inhibitor, partial curve, poor fit]"
